Values joined by “and” are separate entries in the source; they are usually repeats but may differ in a detail not shown here. Equal values may be shown once. Over roughly 5,400 compounds, “IFI” has its median near 2; the highest 2% begin near 22. Some of the results follow.
assay: NOVARTIS: Inhibition Frequency Index (IFI) - the number of HTS assays where a compound showed > 50% inhibition/induction, expressed as a percentage of the number of assays in which the compound was tested.; type: functional

SMILES	IFI
Nc1c(C(=O)Nc2ccc(C3=NCCN3)cc2)cccc1C(=O)Nc1ccc(C2=NCCN2)cc1	7.41%
CC(=O)Nc1ccc(-c2nc(-c3ccc(Oc4ccc(-c5[nH]c(-c6ccc(NC(C)=O)cc6)nc5-c5ccccc5)cc4)cc3)c(-c3ccccc3)[nH]2)cc1	1.54%
NC(Cc1ccccc1)C(=O)N1CCn2c(nc(-c3ccccc3)c2Nc2ccc3c(c2)OCO3)C1 (stereo not given)	4.11%
O=C(Nc1ccc2c3c(cccc13)CC2)c1cccc2ccccc12	0%
O=C(/C=C/c1ccccc1Cl)Nc1ccc(Oc2ccc3ccccc3c2Cl)c(Cl)c1	0%
N#Cc1c2c(c(NCc3ccccn3)n3c1nc1ccccc13)CCCC2	4.76%
O=C(Cc1ccccc1)NC(c1ccccc1)c1ccc2cccnc2c1O (stereo not given)	13%
CCOc1ccccc1-n1c(N)c(C(=O)Nc2ccc(C)cc2)sc1=S	1.16%
C[n+]1c2n(c3ccccc31)N=C(c1ccccc1)CS2	3.7%
CCN(CC)CCCNC(=S)N(CCc1cccc(C)c1)Cc1cc2cc(OC)c(OC)cc2[nH]c1=O	11.4%
CCC(c1nc2ccccc2c(=O)n1-c1ccccc1OC)N(CCc1ccccc1)C(=O)Nc1ccccc1OC (stereo not given)	0.943%
Cc1nonc1C(=O)NN=Cc1ccc([N+](=O)[O-])o1	7.14%
Clc1ccc2c(c1)c(-c1ccccc1)nc1nnnn12	3.08%
O=C(Cc1cccs1)N1CCC(n2c(Cc3ccc(F)cc3)nc3cccnc32)CC1	5%
CC1=C(C(=O)OC2CCCC2)C(c2ccccc2F)C2=C(CC(c3ccccc3)CC2=O)N1 (stereo not given)	3.49%
Cc1ccc2c(C)nc(Nc3nc(C)cc(-c4ccccc4)n3)nc2c1	15.4%
CC[n+]1ccccc1C=Cc1ccc(N(C)C)cc1	6.57% and 5.88%
COC(=O)C1=C(C)NC2=C(C(=O)CC(c3ccccc3Cl)C2)C1c1ccc(OC)c(OC)c1 (stereo not given)	3.61%
C#CC(C)(C)NS(=O)(=O)c1cc(-c2nnc(Nc3cccc(C)c3)c3ccccc23)ccc1C	0%
O=C(Nc1cccc(Cl)c1)c1cc2ccccc2cc1O	9.62%
CCCCN1C(=O)N(c2ccccc2C)C(C)(O)CC1(C)C (stereo not given)	0%
Cc1cc(=O)oc2c1ccc1oc(C(=O)c3ccccc3)c(C)c12	5.5%

SMILES	IFI
C=CCSc1nc2sc3c(c2c(=O)n1-c1ccccc1)CCN(C)C3	7.55%
O=C(NCc1ccccc1)C(c1ccc(F)cc1)N(Cc1ccco1)C(=O)c1cnccn1 (stereo not given)	0%
Cc1cc(C)n(-c2ncc(-c3ccc([N+](=O)[O-])cc3)cn2)n1	7.69%
COc1ccc(C(=O)C2CC2c2ccc(Cl)cc2)cc1 (stereo not given)	3.8%
CC[n+]1c(/C=C/c2ccc(Cl)cc2)ccc2ccccc21	4.84%
COc1ccc(N2C(=O)C3C(C2=O)C2(c4ccccc4)C(=O)C3(c3ccccc3)C(c3ccc4c(c3)OCO4)=C2c2ccc3c(c2)OCO3)c([N+](=O)[O-])c1 (stereo not given)	0%
Cc1c(C(=O)Nc2ccccc2)sc2ncn(Cc3ccccc3Cl)c(=O)c12	0%
Cc1c(C)c(C)c(CNC(=S)NN)c(C)c1C	2.02%
CC(=O)Nc1cc([N+](=O)[O-])ccc1N1CCOCC1	0%
O=C(NC(=S)Nc1ccc(NC(=O)c2cccs2)cc1)c1ccco1	7.69%
COc1ccccc1C1CC(c2ccccc2)=NN1C(=O)c1ccccc1 (stereo not given)	2.3%
COc1ccc(N=Nc2nc3ccc(Br)cc3n2C)cc1	9.26%
CC(=NNC(N)=S)C(C)=NNC(N)=S	1.12%
Cc1c(Br)c([N+](=O)[O-])nn1CC(=O)NC(C)c1ccccc1 (stereo not given)	0%
Cc1cc(N2CCC(C)CC2)nc2ccc(NC(=O)c3ccc([N+](=O)[O-])o3)cc12	0%
COc1ccc(-c2c[n+](-c3ccccc3)c3n2CCS3)cc1	7.69%
Cc1c(C#N)c2ccccc2n1CC(=O)Nc1ccc(Br)cc1	3.17%
COc1ccc(/C=C/c2ccc3ccccc3[n+]2C)cc1OC	0%
CCCCOc1ccc(C2C3CCCC=C3C(C#N)=C(N)C2(C#N)C#N)cc1 (stereo not given)	0%
COc1ccccc1C1SCCN1C(=O)Nc1ccc(Cl)c(Cl)c1 (stereo not given)	0%
Cc1ccc(NC(=O)N(CCN(C)C)Cc2cc3cc4c(cc3[nH]c2=O)OCCO4)cc1	6.35%
Cc1cccc(OCC(=O)NCCNC2=NS(=O)(=O)c3ccccc32)c1	0%

SMILES	IFI
CCOC(=O)C1CCN(C(c2cc3cc(OC)c(OC)cc3[nH]c2=O)c2nnnn2Cc2ccccc2)CC1 (stereo not given)	1.03%
COC1=CC(=O)c2c(ccc3c(OC)c(O)ccc23)C1=O	12.3%
CCCOc1ccc(NC(=O)c2ccco2)cc1	6.06%
O=C(NCc1ccc(Cl)cc1)C(=O)NCc1ccccn1	1.54%
Nc1ccc(N2CCCCCC2)cc1	5.46%
Oc1ccc(-c2ccccc2)cc1CNCCCN1CCOCC1	0.87%
CN1CCCC1CCNc1ncc(C(=O)NCCc2ccccc2)c(NCC2CCCCC2)n1 (stereo not given)	0.962%
O=C(CSc1nc2ccccc2[nH]1)Nc1ccc2c(c1)OCO2	1.18%
COc1cncc(-c2cncc(N3CCN(c4ccncc4)CC3)n2)c1	0%
CCOC(=O)C1=C(C)N=c2sc(=Cc3ccccc3OC(C)=O)c(=O)n2C1c1ccc(OC)cc1 (stereo not given)	7.06%
Cc1cccc(NC(=O)c2ccc(N3CC4CC(C3)c3cccc(=O)n3C4)c(NC(=O)Cc3c(F)cccc3Cl)c2)n1 (stereo not given)	0%
O=S(=O)(c1ccc(Cl)cc1)N1CCN(C(=S)NCc2ccco2)CC1	0%
COc1ccc(-n2cc(-c3ccc(C)cc3)nc2SCC(=O)Nc2ccc(C)cc2)cc1	0%
CCCN1CCC(N2CCCC(c3[nH]ncc3-c3cccc(C(F)(F)F)c3)C2)CC1 (stereo not given)	1.92%
Cc1ccc2[nH]c3c(NCCN(C)C)ncnc3c2c1	9.8%
CC1=C(CC(=O)c2cccs2)C(=O)c2ccccc2C1=O	6.58%
COc1cc(C=NNc2nc3cc(Cl)ccc3[nH]2)cc(OC)c1OC	0%
Cc1cccc(-c2nc3cc(NC(=S)NC(=O)c4ccc(Cl)cc4)ccc3o2)c1	0%
CC[N+](C)(CC)CCSc1nc2ccccc2c(=S)n1-c1ccc(OC)cc1	0%
c1ccc(Oc2cccc(CN3CCc4nc(N5CCCCC5)sc4C3)c2)cc1	18.3%
CC(=O)c1ccc2c3c(onc13)-c1ccccc1C2=O	0%
